In the antibiotic and cytotoxicity screens of Wong et al. (2023):
The list shows a part of the results.

Tested on: S. aureus RN4220
Assay: growth inhibition call (relative growth <= 0.2)
Settings: 50 µM

Compound	growth inhibition call
O=C(C[C@@H]1CC[C@@H]2[C@H](COC[C@@H](O)CN2C(=O)Nc2ccc(C(F)(F)F)cc2)O1)NCc1ccncn1	inactive
COc1cccc(-c2ccc([C@@H](Oc3cc(-c4ccc(C[C@H](N)C(=O)O)cc4)nc(N)n3)C(F)(F)F)cc2)c1	inactive
O=C(CCCCCCC(=O)N/N=C/c1cccc(B(O)O)c1)NO	inactive
CC[C@@H](C)c1ccc(NC(=O)c2cc3ccccc3o2)cc1	inactive
C[C@H](CO)N1C[C@H](C)[C@@H](CN(C)S(=O)(=O)c2ccccc2)Oc2ccc(NS(C)(=O)=O)cc2C1=O	inactive
C[C@@H]1CN([C@H](C)CO)C(=O)c2cc(NC(=O)Nc3cccc4ccccc34)ccc2O[C@@H](C)CCCCO[C@H]1CN(C)S(=O)(=O)c1ccc(F)cc1	inactive
O=C(C[C@H]1CC=CCC[C@H](Cc2ccc(F)cc2)C(=O)OC[C@@H](Cc2ccccc2)NC1=O)NCCO	inactive
C[C@@H]1CN([C@@H](C)CO)C(=O)c2cc(NC(=O)Cc3ccccc3)ccc2O[C@@H](C)CCCCO[C@H]1CN(C)Cc1ccncc1	inactive
C[C@H](CO)N1C[C@H](C)[C@@H](CN(C)C(=O)NC2CCCCC2)Oc2cc(-c3cccnc3)ccc2S1(=O)=O	inactive
N=C(CN1CCCCC1)NO	inactive
C[C@H]1CN([C@@H](C)CO)C(=O)c2c(c3ccccc3n2C)-c2ccccc2CO[C@@H]1CN(C)Cc1ccc(C(=O)O)cc1	inactive
C[C@H](CO)N1C[C@H](C)[C@@H](CN(C)Cc2cccc(F)c2)OCc2ccccc2-c2c(n(C)c3ccccc23)C1=O	inactive
Cc1noc(C)c1NC(=O)Nc1ccc2c(c1)C(=O)N([C@@H](C)CO)C[C@@H](C)[C@H](CN(C)Cc1ccncc1)OCCCC[C@@H](C)O2	inactive
C[C@H]1CN([C@@H](C)CO)S(=O)(=O)c2ccc(C#Cc3ccc(F)cc3)cc2O[C@@H]1CN(C)S(=O)(=O)c1cn(C)cn1	inactive
Nc1ccccc1C(=O)NCCN1CCNC1=O	inactive
C[C@@H]1CN([C@H](C)CO)C(=O)c2cc(NC(=O)NC3CCCCC3)ccc2O[C@@H](C)CCCCO[C@H]1CN(C)Cc1ccc(C(F)(F)F)cc1	inactive
C[C@@H]1CCCCO[C@@H](CN(C)C(=O)c2ccccc2)[C@@H](C)CN([C@@H](C)CO)C(=O)c2cc(NC(=O)Nc3ccccc3)ccc2O1	inactive
C[C@@H]1CN([C@@H](C)CO)C(=O)c2cc(NC(=O)Nc3ccc(C(F)(F)F)cc3)ccc2O[C@@H]1CN(C)C(=O)Nc1ccc(C(F)(F)F)cc1	inactive
CCN(CC)C(=O)N1CCN(C)CC1	inactive
Brc1ccc(CSc2c[nH]c3ccccc23)cc1	active
CCCCn1c(SCC(N)=O)nc2c1c(=O)n(C)c(=O)n2C	inactive
CCCNC(=O)Nc1ccc2c(c1)C(=O)N(C)C[C@H](OC)[C@H](C)CN(C(=O)C1CCOCC1)[C@@H](C)CO2	inactive
